Experimental data taken from the supplement of paper PMC4967469.
A lower IC50 marks a more sensitive line; a limit (>, <) means that the fit lies beyond the doses tested. AUC is the area under the same curve over the 256-fold range up to the top dose, as a fraction; the more sensitive the line, the further below 1.

Compound: FC(F)c1nc2ccccc2n1-c1nc(N2CCOCC2)nc(N2CCOCC2)n1 [ZSTK474]
Test: Viability of human cancer cell lines after 72 h of drug (GDSC screen)
Procedure: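 Human cancer cell lines in 384-well plates, medium with 10% serum, drug for 72 h over a 256-fold dose range (nine 2-fold or five 4-fold steps up to the top dose). Adherent lines were fixed and stained with the nucleic acid dye Syto60, suspension lines read with resazurin; signal relative to control wells, capped at 0 and 100%. One two-parameter sigmoid per drug and line, fitted in a mixed model over all curves with the slope shared within a line.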

Cell Line | AUC | IC50
ALL-PO (lymphoblastic leukaemia, suspension, top dose 5.12 µM) | 0.415 | 0.184 µM
ALL-SIL (T-cell leukaemia, suspension, top dose 5.12 µM) | 0.394 | 0.171 µM
AM-38 (glioma, semi-adherent, top dose 5.12 µM) | 0.672 | 0.977 µM
AMO-1 (haematopoietic neoplasm, suspension, top dose 5.12 µM) | 0.733 | 1.32 µM
AN3-CA (endometrium, adherent, top dose 5.12 µM) | 0.778 | 2.27 µM
ARH-77 (myeloma, suspension, top dose 5.12 µM) | 0.288 | 0.0827 µM
ASH-3 (thyroid, adherent, top dose 5.12 µM) | 0.91 | > 5.12 µM
ATN-1 (T-cell lymphoblastic leukaemia, suspension, top dose 5.12 µM) | 0.403 | 0.177 µM
AU565 (breast, adherent, top dose 5.12 µM) | 0.793 | 2.63 µM
AsPC-1 (pancreas, adherent, top dose 5.12 µM) | 0.803 | > 5.12 µM
BB30-HNC (head and neck, adherent, top dose 5.12 µM) | 0.673 | 0.96 µM
BB49-HNC (head and neck, adherent, top dose 5.12 µM) | 0.97 | > 5.12 µM
BB65-RCC (kidney, adherent, top dose 5.12 µM) | 0.805 | 3.06 µM
BC-1 (B-cell lymphoma, suspension, top dose 5.12 µM) | 0.493 | 0.306 µM
BC-3 (B-cell lymphoma, suspension, top dose 5.12 µM) | 0.649 | 0.785 µM
BCPAP (thyroid, adherent, top dose 5.12 µM) | 0.766 | 1.72 µM
BE2-M17 (neuroblastoma, adherent, top dose 5.12 µM) | 0.896 | > 5.12 µM
BE-13 (lymphoblastic leukaemia, suspension, top dose 5.12 µM) | 0.898 | > 5.12 µM
BEN (non-small cell lung carcinoma, adherent, top dose 5.12 µM) | 0.818 | 3.43 µM
BFTC-905 (bladder, adherent, top dose 5.12 µM) | 0.778 | 1.78 µM
BFTC-909 (kidney, adherent, top dose 5.12 µM) | 0.947 | > 5.12 µM
BHT-101 (thyroid, adherent, top dose 5.12 µM) | 0.772 | 2.04 µM
BHY (head and neck, adherent, top dose 5.12 µM) | 0.704 | 1.21 µM
BICR10 (head and neck, adherent, top dose 5.12 µM) | 0.883 | > 5.12 µM
BICR22 (head and neck, adherent, top dose 5.12 µM) | 0.796 | 2.81 µM
BICR31 (head and neck, adherent, top dose 5.12 µM) | 0.918 | > 5.12 µM
BICR78 (head and neck, adherent, top dose 5.12 µM) | 0.902 | > 5.12 µM

Cell Line | AUC | IC50
BL-41 (Burkitt lymphoma, suspension, top dose 5.12 µM) | 0.183 | 0.0501 µM
BPH-1 (prostate, adherent, top dose 5.12 µM) | 0.418 | 0.186 µM
BT-20 (breast, adherent, top dose 5.12 µM) | 0.735 | 1.8 µM
BT-474 (breast, adherent, top dose 5.12 µM) | 0.572 | 0.515 µM
BT-483 (breast, adherent, top dose 5.12 µM) | 0.512 | 0.355 µM
BV-173 (chronic myeloid leukaemia, suspension, top dose 5.12 µM) | 0.815 | 2.4 µM
Becker (glioma, adherent, top dose 5.12 µM) | 0.654 | 0.91 µM
BxPC-3 (pancreas, adherent, top dose 5.12 µM) | 0.785 | 2.48 µM
C2BBe1 (large intestine, adherent, top dose 5.12 µM) | 0.808 | 3.08 µM
C3A (liver, adherent, top dose 5.12 µM) | 0.981 | > 5.12 µM
C32 (melanoma, adherent, top dose 5.12 µM) | 0.983 | > 5.12 µM
C-4-I (cervix, adherent, top dose 5.12 µM) | 0.977 | > 5.12 µM
C-33-A (cervix, adherent, top dose 5.12 µM) | 0.778 | 2.08 µM
CA46 (Burkitt lymphoma, suspension, top dose 5.12 µM) | 0.411 | 0.179 µM
CADO-ES1 (Ewing sarcoma, suspension, top dose 5.12 µM) | 0.509 | 0.338 µM
CAKI-1 (kidney, adherent, top dose 5.12 µM) | 0.692 | 1.46 µM
CAL-12T (non-small cell lung carcinoma, adherent, top dose 5.12 µM) | 0.612 | 0.677 µM
CAL-27 (head and neck, adherent, top dose 5.12 µM) | 0.878 | > 5.12 µM
CAL-29 (bladder, adherent, top dose 5.12 µM) | 0.737 | 1.62 µM
CAL-33 (head and neck, adherent, top dose 5.12 µM) | 0.667 | 0.935 µM
CAL-39 (cervix, adherent, top dose 5.12 µM) | 0.899 | > 5.12 µM
CAL-51 (breast, adherent, top dose 5.12 µM) | 0.907 | > 5.12 µM
CAL-54 (kidney, adherent, top dose 5.12 µM) | 0.925 | > 5.12 µM
CAL-62 (thyroid, adherent, top dose 5.12 µM) | 0.832 | 3.05 µM
CAL-72 (osteosarcoma, adherent, top dose 5.12 µM) | 0.984 | > 5.12 µM
CAL-78 (chondrosarcoma, adherent, top dose 5.12 µM) | 0.986 | > 5.12 µM
CAL-85-1 (breast, adherent, top dose 5.12 µM) | 0.822 | 4.15 µM

Cell Line | AUC | IC50
CAL-120 (breast, adherent, top dose 5.12 µM) | 0.719 | 1.62 µM
CAL-148 (breast, suspension, top dose 5.12 µM) | 0.904 | > 5.12 µM
CAMA-1 (breast, adherent, top dose 5.12 µM) | 0.813 | 3.7 µM
CAPAN-1 (pancreas, adherent, top dose 5.12 µM) | 0.874 | > 5.12 µM
CAS-1 (glioma, adherent, top dose 5.12 µM) | 0.91 | > 5.12 µM
CCF-STTG1 (glioma, adherent, top dose 5.12 µM) | 0.986 | > 5.12 µM
CCK-81 (large intestine, adherent, top dose 5.12 µM) | 0.69 | 1.05 µM
CCRF-CEM (lymphoblastic leukaemia, suspension, top dose 5.12 µM) | 0.392 | 0.17 µM
CESS (acute myeloid leukaemia, suspension, top dose 5.12 µM) | 0.354 | 0.135 µM
CFPAC-1 (pancreas, adherent, top dose 5.12 µM) | 0.842 | 4.38 µM
CGTH-W-1 (thyroid, adherent, top dose 5.12 µM) | 0.916 | > 5.12 µM
CHL-1 (melanoma, adherent, top dose 5.12 µM) | 0.485 | 0.292 µM
CHP-134 (neuroblastoma, suspension, top dose 5.12 µM) | 0.826 | 4.31 µM
CHP-212 (neuroblastoma, adherent, top dose 5.12 µM) | 0.662 | 0.868 µM
CHSA0011 (chondrosarcoma, adherent, top dose 5.12 µM) | 0.868 | > 5.12 µM
CHSA0108 (chondrosarcoma, adherent, top dose 5.12 µM) | 0.929 | > 5.12 µM
CHSA8926 (chondrosarcoma, adherent, top dose 5.12 µM) | 0.863 | > 5.12 µM
CL-11 (large intestine, adherent, top dose 5.12 µM) | 0.972 | > 5.12 µM
CMK (acute myeloid leukaemia, suspension, top dose 5.12 µM) | 0.425 | 0.207 µM
COLO-205 (large intestine, suspension, top dose 5.12 µM) | 0.861 | 4.24 µM
COLO-320-HSR (large intestine, suspension, top dose 5.12 µM) | 0.691 | 1.01 µM
COLO-668 (small cell lung carcinoma, adherent, top dose 5.12 µM) | 0.758 | 1.78 µM
COLO-678 (large intestine, semi-adherent, top dose 5.12 µM) | 0.961 | > 5.12 µM
COLO-679 (melanoma, adherent, top dose 5.12 µM) | 0.859 | 5.11 µM
COLO-680N (oesophagus, adherent, top dose 5.12 µM) | 0.922 | > 5.12 µM
COLO-684 (endometrium, suspension, top dose 5.12 µM) | 0.384 | 0.147 µM
